Laboratory results taken from patent publication US20260013501A1, “HERBICIDAL DERIVATIVES” (SYNGENTA CROP PROTECTION AG, priority 2022, published 2026).
The name of at least one read-out is uncertain.

Experiments:
Assay type in all cases: in vivo
Conditions in all cases: evaluated after 13 days
Zea mays (ZEAMX) = test: Post-emergence Test (Table B2), ZEAMX; parameters: key: 5-point damage scale: 5=81-100%, 4=61-80%, 3=41-60%, 2=21-40%, 1=0-20%
In short: (§1)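 Score: % damage at 13 d on a 5-point scale (5=81-100%; 4=61-80%; 3=41-60%; 2=21-40%; 1=0-20%). Seeds sown in pots, sprayed with test article in acetone/water 50:50 + 0.5% Tween 20; rate in g/ha. Glasshouse 24/16 °C, 14 h light, 65% RH, watered twice daily.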

[1] = test system: Amaranthus palmeri (AMAPA); test: Pre-emergence Test (Table B1), AMAPA
[2] = test system: Amaranthus retoflexus (AMARE); test: Post-emergence Test (Table B2), AMARE; parameters: key: five-point scale: 5=81-100%, 4=61-80%, 3=41-60%, 2=21-40%, 1=0-20% damage
In short: as §1

[3] = test system: Amaranthus palmeri (AMAPA); test: Post-emergence Test (Table B2), AMAPA; parameters: key: five-point scale: 5=81-100%, 4=61-80%, 3=41-60%, 2=21-40%, 1=0-20% damage
In short: as §1

[4] = test system: Echinochloa crus-galli (ECHCG); test: Pre-emergence Test (Table B1), ECHCG
[5] = test system: Ipomoea hederacea (IPOHE); test: Post-emergence Test (Table B2), IPOHE; parameters: key: five-point scale: 5=81-100%, 4=61-80%, 3=41-60%, 2=21-40%, 1=0-20% damage
In short: as §1

[6] = test system: Ipomoea hederacea (IPOHE); test: Pre-emergence Test (Table B1), IPOHE
[7] = test system: Amaranthus retoflexus (AMARE); test: Pre-emergence Test (Table B1), AMARE
[8] = test system: Echinochloa crus-galli (ECHCG); test: Post-emergence Test (Table B2), ECHCG; parameters: key: 5-point damage scale: 5=81-100%, 4=61-80%, 3=41-60%, 2=21-40%, 1=0-20%
In short: as §1

Setaria faberi (SETFA) [9] = test: Post-emergence Test (Table B2), SETFA; parameters: key: five-point scale: 5=81-100%, 4=61-80%, 3=41-60%, 2=21-40%, 1=0-20% damage
In short: as §1

Setaria faberi (SETFA) [10] = test: Pre-emergence Test (Table B1), SETFA

Row | SMILES | percentage damage caused to the plant, ZEAMX (Zea mays (ZEAMX); rate 250 g/Ha) | Pre-emergence Test, percentage damage caused to the plant (five-point scale), AMAPA ([1]; Rate 250 g/Ha) | percentage damage caused to the plant, AMARE ([2]; rate 250 g/Ha) | percentage damage caused to the plant, AMAPA ([3]; rate 250 g/Ha) | Pre-emergence Test, percentage damage caused to the plant (five-point scale), ECHCG ([4]; Rate 250 g/Ha) | percentage damage caused to the plant, IPOHE ([5]; rate 250 g/Ha) | Pre-emergence Test, percentage damage caused to the plant (five-point scale), IPOHE ([6]; Rate 250 g/Ha) | Pre-emergence Test, percentage damage caused to the plant (five-point scale), AMARE ([7]; Rate 250 g/Ha) | percentage damage caused to the plant, ECHCG ([8]; rate 250 g/Ha) | percentage damage caused to the plant, SETFA (Setaria faberi (SETFA) [9]; rate 250 g/Ha) | Pre-emergence Test, percentage damage caused to the plant (five-point scale), SETFA (Setaria faberi (SETFA) [10]; Rate 250 g/Ha) | also measured
1 | CCn1c(Cc2ccc(C(=O)OC)cn2)cc(=O)c(C(=O)O)c1-c1ccc(Cl)c(Cl)c1 [Compound 46, 2-(3,4-dichlorophenyl)-1-ethyl-6-[(5-methoxycarbonyl-2-pyridyl)methyl]-4-oxo-pyridine-3-carboxylic acid] | 1 (1=0-20%) | 3 (3=41-60%) | 1 (1=0-20%) | 1 (1=0-20%) | 2 (2=21-40%) | 3 (3=41-60%) | 3 (3=41-60%) | 1 (1=0-20%) |  |  |  | 
2 | CCn1c(Cc2cccc(OC)n2)cc(=O)c(C(=O)O)c1-c1ccc(Cl)c(Cl)c1 [Compound 60, 2-(3,4-dichlorophenyl)-1-ethyl-6-[(6-methoxy-2-pyridyl)methyl]-4-oxo-pyridine-3-carboxylic acid] | 2 (2=21-40%) | 1 (1=0-20%) | 1 (1=0-20%) | 1 (1=0-20%) | 1 (1=0-20%) | 3 (3=41-60%) | 1 (1=0-20%) | 1 (1=0-20%) | 2 (2=21-40%) | 2 (2=21-40%) |  | 
3 | CCn1c(Cc2ccc(F)cc2Cl)cc(=O)c(C(=O)O)c1-c1ccc(Cl)c(Cl)c1 [Compound 68, 6-[(2-chloro-4-fluoro-phenyl)methyl]-2-(3,4-dichlorophenyl)-1-ethyl-4-oxo-3-pyridine-3-carboxylic acid] |  |  |  |  |  |  |  |  |  |  |  | percentage damage caused to the plant, ZEAMX (Zea mays (ZEAMX); rate 1000 g/Ha): 1 (1=0-20%); Pre-emergence Test, percentage damage caused to the plant (five-point scale), AMAPA ([1]; Rate 1000 g/Ha): 1 (1=0-20%); percentage damage caused to the plant, SETFA (Setaria faberi (SETFA) [9]; rate 1000 g/Ha): 1 (1=0-20%); Pre-emergence Test, percentage damage caused to the plant (five-point scale), SETFA (Setaria faberi (SETFA) [10]; Rate 1000 g/Ha): 2 (2=21-40%); Pre-emergence Test, percentage damage caused to the plant (five-point scale), ECHCG ([4]; Rate 1000 g/Ha): 1 (1=0-20%); percentage damage caused to the plant, IPOHE ([5]; rate 1000 g/Ha): 1 (1=0-20%); Pre-emergence Test, percentage damage caused to the plant (five-point scale), AMARE ([7]; Rate 1000 g/Ha): 1 (1=0-20%)
4 | CCn1c(Cc2ccc(F)c(Cl)c2)cc(=O)c(C(=O)O)c1-c1ccc(Cl)c(Cl)c1 [Compound 75, 6-[(3-chloro-4-fluoro-phenyl)methyl]-2-(3,4-dichlorophenyl)-1-ethyl-4-oxo-pyridine-3-carboxylic acid] |  |  |  |  |  |  |  |  |  |  |  | Pre-emergence Test, percentage damage caused to the plant (five-point scale), AMAPA ([1]; Rate 1000 g/Ha): 2 (2=21-40%); percentage damage caused to the plant, ECHCG ([8]; rate 1000 g/Ha): 1 (1=0-20%); percentage damage caused to the plant, SETFA (Setaria faberi (SETFA) [9]; rate 1000 g/Ha): 4 (4=61-80%); Pre-emergence Test, percentage damage caused to the plant (five-point scale), SETFA (Setaria faberi (SETFA) [10]; Rate 1000 g/Ha): 4 (4=61-80%); Pre-emergence Test, percentage damage caused to the plant (five-point scale), ECHCG ([4]; Rate 1000 g/Ha): 2 (2=21-40%); percentage damage caused to the plant, IPOHE ([5]; rate 1000 g/Ha): 2 (2=21-40%); Pre-emergence Test, percentage damage caused to the plant (five-point scale), IPOHE ([6]; Rate 1000 g/Ha): 1 (1=0-20%); Pre-emergence Test, percentage damage caused to the plant (five-point scale), AMARE ([7]; Rate 1000 g/Ha): 4 (4=61-80%)
5 | CCn1c(Cc2ccc(OC)cc2F)cc(=O)c(C(=O)O)c1-c1ccc(Cl)c(Cl)c1 [Compound 89, 2-(3,4-dichlorophenyl)-1-ethyl-6-[(2-fluoro-4-methoxy-phenyl)methyl]-4-oxo-pyridine-3-carboxylic acid] | 1 (1=0-20%) | 1 (1=0-20%) |  |  | 1 (1=0-20%) | 2 (2=21-40%) |  | 1 (1=0-20%) |  |  | 2 (2=21-40%) | 
6 | CCn1c(Cc2ccc(F)c(C(=O)O)n2)cc(=O)c(C(=O)O)c1-c1ccc(Cl)c(Cl)c1 [Compound 98, 6-[(6-carboxy-5-fluoro-2-pyridyl)methyl]-2-(3,4-dichlorophenyl)-1-ehtyl-4-oxo-pyridine-3-carboxylic acid] |  |  |  |  |  |  |  |  |  |  |  | Pre-emergence Test, percentage damage caused to the plant (five-point scale), AMAPA ([1]; Rate 1000 g/Ha): 1 (1=0-20%); percentage damage caused to the plant, ECHCG ([8]; rate 1000 g/Ha): 2 (2=21-40%); percentage damage caused to the plant, SETFA (Setaria faberi (SETFA) [9]; rate 1000 g/Ha): 3 (3=41-60%); percentage damage caused to the plant, AMARE ([2]; rate 1000 g/Ha): 2 (2=21-40%); Pre-emergence Test, percentage damage caused to the plant (five-point scale), SETFA (Setaria faberi (SETFA) [10]; Rate 1000 g/Ha): 2 (2=21-40%); percentage damage caused to the plant, AMAPA ([3]; rate 1000 g/Ha): 2 (2=21-40%); Pre-emergence Test, percentage damage caused to the plant (five-point scale), ECHCG ([4]; Rate 1000 g/Ha): 2 (2=21-40%); Pre-emergence Test, percentage damage caused to the plant (five-point scale), IPOHE ([6]; Rate 1000 g/Ha): 1 (1=0-20%); Pre-emergence Test, percentage damage caused to the plant (five-point scale), AMARE ([7]; Rate 1000 g/Ha): 2 (2=21-40%)
7 | CCn1c(Cc2cc(OC)ncn2)cc(=O)c(C(=O)O)c1-c1ccc(Cl)c(Cl)c1 [Compound 100, 2-(3,4-dichlorophenyl)-1-ethyl-6-[(6-methoxypyrimidin-4-yl)methyl]-4-oxo-pyridine-3-carboxylic acid] | 2 (2=21-40%) | 1 (1=0-20%) | 4 (4=61-80%) | 4 (4=61-80%) |  | 4 (4=61-80%) | 4 (4=61-80%) |  | 2 (2=21-40%) | 3 (3=41-60%) | 2 (2=21-40%) | 
8 | CCn1c(Cc2cc(Cl)ccn2)cc(=O)c(C(=O)O)c1-c1ccc(Cl)c(Cl)c1 [Compound 117, 6-[(4-chloro-2-pyridyl)methyl]-2-(3,4-dichlorophenyl)-1-ethyl-4-oxo-pyridine-3-carboxylic acid] |  |  |  |  |  |  |  |  |  |  |  | Pre-emergence Test, percentage damage caused to the plant (five-point scale), AMAPA ([1]; Rate 62.5 g/Ha): 3 (3=41-60%); percentage damage caused to the plant, ECHCG ([8]; rate 62.5 g/Ha): 3 (3=41-60%); percentage damage caused to the plant, SETFA (Setaria faberi (SETFA) [9]; rate 62.5 g/Ha): 4 (4=61-80%); percentage damage caused to the plant, AMARE ([2]; rate 62.5 g/Ha): 4 (4=61-80%); Pre-emergence Test, percentage damage caused to the plant (five-point scale), SETFA (Setaria faberi (SETFA) [10]; Rate 62.5 g/Ha): 2 (2=21-40%); percentage damage caused to the plant, AMAPA ([3]; rate 62.5 g/Ha): 3 (3=41-60%); Pre-emergence Test, percentage damage caused to the plant (five-point scale), ECHCG ([4]; Rate 62.5 g/Ha): 1 (1=0-20%); percentage damage caused to the plant, IPOHE ([5]; rate 62.5 g/Ha): 3 (3=41-60%); Pre-emergence Test, percentage damage caused to the plant (five-point scale), IPOHE ([6]; Rate 62.5 g/Ha): 3 (3=41-60%); Pre-emergence Test, percentage damage caused to the plant (five-point scale), AMARE ([7]; Rate 62.5 g/Ha): 1 (1=0-20%)
9 | CCn1c(Cc2cc(C)ncn2)cc(=O)c(C(=O)O)c1-c1ccc(Cl)c(Cl)c1 [Compound 128, 2-(3,4-dichlorophenyl)-1-ethyl-6-[(6-methylpyrimidin-4-yl)methyl]-4-oxo-pyridine-3-carboxylic acid] |  | 1 (1=0-20%) | 2 (2=21-40%) | 1 (1=0-20%) |  | 4 (4=61-80%) | 4 (4=61-80%) | 1 (1=0-20%) | 3 (3=41-60%) | 4 (4=61-80%) | 1 (1=0-20%) | 
10 | CCn1c(Cc2ccn[nH]c2=O)cc(=O)c(C(=O)O)c1-c1ccc(Cl)c(Cl)c1 [Compound 142, 2-(3,4-dichlorophenyl)-1-ethyl-4-oxo-6-[(6-oxo-1H-pyridazin-5-yl)methyl]pyridine-3-carboxylic acid] | 1 (1=0-20%) | 1 (1=0-20%) |  | 1 (1=0-20%) |  | 1 (1=0-20%) | 1 (1=0-20%) | 1 (1=0-20%) | 1 (1=0-20%) | 1 (1=0-20%) |  | 
11 | CCn1c(Cc2csnc2C)cc(=O)c(C(=O)O)c1-c1ccc(Cl)c(Cl)c1 [Compound 150, 2-(3,4-dichlorophenyl)-1-ethyl-6-[(3-methylisothiazol-4-yl)methyl]-4-oxo-pyridine-3-carboxylic acid] |  | 1 (1=0-20%) | 1 (1=0-20%) | 1 (1=0-20%) | 1 (1=0-20%) | 4 (4=61-80%) |  | 1 (1=0-20%) | 1 (1=0-20%) | 1 (1=0-20%) | 1 (1=0-20%) | 
